# Measurements taken from paper PMC10668032.
# Some of the results follow. At the low end of the ranking, values are background and their order means little.
# Molecular target: SIX1 homeodomain (reference allele) (UniProt Q15475)
# Experiment: universal protein binding microarray
# Conditions: Universal all-10-mer PBM (8x60K, AMADID 030236), 300 nM GST-tagged protein, Alexa Fluor 488 anti-GST; buffer, salt, pH and temperature not stated; high values mean tight binding; most listed sequences are background and not binding sites; double strand, one strand shown
row,Sequence,binding signal
1,ACGCGCCC,-0.00741 E-score
2,AGCGTGTG,-0.186 E-score
3,AATAAACT,-0.112 E-score
4,TCGGAACA,0.0166 E-score
5,AAAAAGCT,-0.201 E-score
6,CAGATAGA,0.112 E-score
7,GCGACAGC,-0.326 E-score
8,CCGGGATA,0.305 E-score
9,AAACGGAG,-0.23 E-score
10,ACGTAATG,0.0035 E-score
11,AGGACGGC,-0.141 E-score
12,GGGTCCAA,0.0166 E-score
13,CAATCAGA,-0.105 E-score
14,GTAACGGA,-0.129 E-score
15,ATTCATAC,0.142 E-score
16,ACCGCGAA,0.0424 E-score
17,AGAGGTCC,-0.0824 E-score
18,AAGTGGCG,-0.0716 E-score
19,CTTGTTTC,-0.038 E-score
20,AGACCGCG,-0.154 E-score
21,ACTTACCC,0.0447 E-score
22,AACGCCAT,-0.0164 E-score
23,GTCCAGAA,-0.274 E-score
24,CCGTCCGC,-0.266 E-score
25,GCTAACCC,-0.0191 E-score

row,Sequence,binding signal
1,ACCTACGG,-0.101 E-score
2,CCGGTAAG,-0.0913 E-score
3,AATTAATT,-0.44 E-score
4,CTATAGGA,0.116 E-score
5,AACCTAGT,0.125 E-score
6,CCTTCCGA,0.0464 E-score
7,ATTTTTAC,-0.193 E-score
8,ACGACACG,0.156 E-score
9,CAATAGGA,0.0183 E-score
10,CCATGCAG,-0.17 E-score
11,CGGAAGGC,-0.2 E-score
12,CACCCCTA,0.158 E-score
13,TAATTAGA,-0.0593 E-score
14,GTACCCAC,0.021 E-score
15,AATGCGTG,-0.0748 E-score
16,CGTTAGAG,0.0975 E-score
17,TAAGAGAA,-0.128 E-score
18,CCAGCCAA,-0.168 E-score
19,CTCTCGTC,-0.158 E-score
20,CGGTCACA,-0.0846 E-score
21,ACCTTTCG,-0.0648 E-score
22,GGTGGGGA,0.147 E-score
23,ATCACCAC,0.262 E-score
24,AACTTAAG,-0.201 E-score
25,GGAAATGA,-0.0643 E-score

row,Sequence,binding signal
1,CGTCTAAA,-0.0599 E-score
2,CTTTCGTC,-0.0977 E-score
3,AGTCTTAT,0.0596 E-score
4,ATATTACC,0.259 E-score
5,CGCATAAC,0.00968 E-score
6,TAGTAATA,0.167 E-score
7,AAGCGGCA,0.0298 E-score
8,CCTAGATA,0.286 E-score
9,AGCGCGTC,-0.0604 E-score
10,AGGCGGCC,-0.292 E-score
11,GTGTGTAA,-0.0422 E-score
12,AGACCACA,-0.0481 E-score
13,GCGAGCCA,-0.175 E-score
14,ATTACAGC,-0.0197 E-score
15,CGACAGTA,-0.0907 E-score
16,CGTAGGGA,0.138 E-score
17,CGGAAAGC,-0.143 E-score
18,CGGCGGTC,-0.148 E-score
19,AACAGTTA,-0.251 E-score
20,GCCGTAAC,-0.232 E-score
21,CCAGCCGC,-0.0163 E-score
22,ATGACTAC,0.0471 E-score
23,ATGCTTCG,-0.155 E-score
24,CTGTGTAC,-0.135 E-score
25,CAAGTATA,0.141 E-score

row,Sequence,binding signal
1,CCATGCAC,0.0772 E-score
2,TGCACCAA,-0.181 E-score
3,ACTAGTAA,-0.159 E-score
4,ACAGTAAA,-0.08 E-score
5,AGGCTACC,-0.0372 E-score
6,ATCTTCAC,0.144 E-score
7,AGCAGCAG,-0.0874 E-score
8,CTCATGTA,0.0298 E-score
9,GCGTGAGC,-0.00547 E-score
10,TAAAGAAA,-0.247 E-score
11,AACGAGGT,-0.0279 E-score
12,AGCACCCT,-0.114 E-score
13,ACTTCAAA,-0.207 E-score
14,CACTTTCA,-0.155 E-score
15,GGAGGCAC,-0.127 E-score
16,GAACACGA,0.00639 E-score
17,CAATTCCC,0.0935 E-score
18,CGAAACTA,0.0974 E-score
19,CGCGCGCG,-0.0257 E-score
20,CGCCGAAC,-0.115 E-score
21,ATCATCCG,0.348 E-score
22,AGATTTTA,-0.173 E-score
23,AAGATGGT,-0.124 E-score
24,ACCAGGAG,0.0435 E-score
25,AGCCGGGC,-0.166 E-score

row,Sequence,binding signal
1,CCACCCTA,0.0444 E-score
2,GCGCAGAA,-0.108 E-score
3,CCTCCAAG,-0.135 E-score
4,ACCCATTC,-0.0962 E-score
5,GTAAAAAA,-0.24 E-score
6,TCAGATGA,0.307 E-score
7,AAGACTGA,-0.0827 E-score
8,CTGACTCA,-0.0717 E-score
9,ATTAGTGG,0.00756 E-score
10,AGCAGCCT,-0.12 E-score
11,CTTGGGCC,-0.183 E-score
12,CAACTCAC,-0.0755 E-score
13,ATGCCCGC,0.0458 E-score
14,AGATTAAG,0.0533 E-score
15,ATAGCAGA,0.118 E-score
16,AGATCGAG,0.113 E-score
17,CAACGGTG,0.0942 E-score
18,AACATGAG,0.0797 E-score
19,ACTCGGAC,-0.111 E-score
20,CCTGCGCG,-0.0477 E-score
21,GGTCGTGA,0.0895 E-score
22,ACCGTTAT,-0.038 E-score
23,CGGAATTC,-0.104 E-score
24,ATGACACC,0.471 E-score
25,ACGGTATC,0.461 E-score

row,Sequence,binding signal
1,ATGGTACG,-0.0554 E-score
2,GAGGAAAC,-0.172 E-score
3,AAAGGTTA,-0.249 E-score
4,AGTGCCCC,-0.0655 E-score
5,CTGGCTTA,-0.0297 E-score
6,TGAGCCAA,-0.122 E-score
7,AGGCCCCG,-0.178 E-score
8,AGAGGTGC,-0.068 E-score
9,AGACTTAC,-0.0941 E-score
10,AAGCGCAA,-0.209 E-score
11,GAAGACTA,-0.248 E-score
12,CGTACAAC,-0.184 E-score
13,ATTATGTC,-0.144 E-score
14,CGGCTGTC,-0.0475 E-score
15,GTTTGGAA,-0.126 E-score
16,CACTTTAC,-0.153 E-score
17,CCCATGCC,-0.0127 E-score
18,ACTCCTAG,-0.0257 E-score
19,ATAGTGCA,0.163 E-score
20,AGTAATAA,-0.03 E-score
21,AGCCAGAG,-0.0222 E-score
22,CTATTAAG,0.00083 E-score
23,CTAAGACC,-0.151 E-score
24,ATATGTTG,0.225 E-score
25,AACTTCAC,-0.147 E-score

row,Sequence,binding signal
1,TCACACCA,0.195 E-score
2,GACAACTC,-0.16 E-score
3,CATGCTAC,-0.0951 E-score
4,AGATTGTG,-0.0423 E-score
5,CTTATGGC,-0.325 E-score
6,TATCTGCA,0.284 E-score
7,GTCATGAC,-0.0837 E-score
8,GTTCAACA,-0.125 E-score
9,ATCCTTGC,0.2 E-score
10,CCTAGGGC,-0.146 E-score
11,ATATTAGC,0.0869 E-score
12,AGTCCCGA,-0.193 E-score
13,GTCCTAGA,-0.0713 E-score
14,ATTCTTTA,-0.0643 E-score
15,CTTACGTC,-0.247 E-score
16,CGCCGTGC,-0.0196 E-score
17,AGTTCTGA,-0.176 E-score
18,GCCCTAGC,-0.0978 E-score
19,GCATCGCA,-0.0758 E-score
20,CTTACAAA,-0.192 E-score
21,GAGACTGC,-0.0229 E-score
22,ACTGTAAA,-0.0733 E-score
